Publication PMC12254070, “Antimicrobial Peptides Design Using Deep Learning and Rational Modifications: Activity in Bacteria, Candida albicans, and Cancer Cells” (Current Microbiology, 2025)
Ends that are not written are not given here.

System: human red blood cells
Assay: Hemolysis assay
Set-up: key: *: For some of the peptides, hemolytic activity assays did not achieve hemolysis greater than 10% at the evaluated concentrations; therefore, a value of 100 μM was used to calculate the therapeutic indices
Conditions: class symbol; 10% hemolysis not reached at evaluated concentrations (3.13-50 µM)
Method: Human blood from a healthy fasting volunteer donor was collected in sodium citrate tubes and centrifuged at 1000 XG at room temperature for 7 min. The sediment was washed 3 times with sterile 0.9% phosphate buffered saline (PBS), centrifuged at 1000 XG and the supernatants were discarded. […] The treated erythrocytes were incubated at 37 °C for 3 h at 90 rpm and centrifuged at 1000 XG at room temperature for 5 min. Fifty µL of the supernatants were transferred to a 96-well plate, and the absorbances were measured at 545 nm. Triton X-100 (0.1%) was used as a positive control, and sterile 0.9% PBS as a negative control. Each treatment had three replicate wells, and the percentage of hemolysis was calculated at 50 µM for each peptide using the following equation. %Hemolysis=ODPEP-OD0.9%PBS/OD0.1%Triton×100-OD0.9%PBS×100% where OD(x) is the optical density of each solution at 545 nm. The minimum hemolytic concentration (MHC) was determined as the lowest peptide concentration that induced 10% hemolysis of human red blood cells.
The hemolytic activity curve was used to interpolate the minimum peptide concentration that results in 10% hemolysis (MHC).

## ALRKLLKKLAKAVKA [OrP3M]
  MHC (minimum hemolytic concentration): *

## IKKWGKVLKKLI [VeP1M]
  MHC (minimum hemolytic concentration): *
